Max response and AC50 data for 19 compounds are collected here from PubChem BioAssay (NCATS).

Usually AC50 stands for the midpoint of the concentration-response curve, whichever way the signal moves.

Test [1] in a line: qHTS Assay for Lipid Storage Modulators (AID 1519). Conditions: Drosophila S3 cells, BODIPY lipid droplet/cell ratio, laser cytometry, cells loaded with oleic acid. The procedure, abridged: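 Cells seeded at 5,000 per well were treated with compounds over a concentration series and loaded with oleic acid (400 uM, as added). Lipid droplet fluorescence (488 nm excitation, 500-530 nm channel) was read by laser-scanning cytometry and normalized to 20 uM Triacsin C.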
On the technique in general: In qHTS, concentration-response curves come from the screen itself.

A short description of test [2]: S16 Schwann cell PMP22 intronic element beta-lactamase assay (AID 624044). Also: nearly all actives have a fitted effect of over 15% in size. Particulars: S16 rat Schwann cells, PMP22 element beta-lactamase FRET, 24 h; measured here: 460 nm blue channel. In a few lines: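 Rat S16 Schwann cells with beta-Lac driven by a PMP22 intronic element, compound-treated 24 h at 37 °C. LiveBLAzer FRET B/G read: 460 nm normalized to potassium clavulanate vs DMSO; 535 nm FRET as viability; concentration-effect curves classified.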

Test [3] is described as follows: qHTS Assay for Inhibitors of PDE-IV (AID 607).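 Also: parental cells stimulated with forskolin 10 µM plus RO 20-1724 100 µM.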 Particulars: HEK293 ACTOne CNG channel cells, membrane potential fluorescence; measured here: parental cell counter-screen. In a few lines:
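Cell-based read-out of cAMP via a modified cyclic nucleotide-gated channel and membrane potential dye (535/590 nm) in HEK293 cells expressing PDE4 endogenously. Compounds tested up to 22.9 uM final; 100 uM RO 20-1724 reference.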

Test [4] can be described thus: A High-Content qHTS Against Drug Library for the Identification of Small Molecules that Inhibit DYT1 Early Onset Primary Dystonia-Associated Cell Pathology (AID 1645839). Conditions: HEK293 Flp-In EGFP-delE TorsinA, punctate imaging, 48 h; measured here: cell count cytotoxicity. The procedure, abridged:
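Flp-In T-REx 293 cells with tetracycline-inducible EGFP-delE hTOR1A (WT EGFP-hTOR1A as reference), 800 cells/well; compound added with tetracycline, 48 h at 37 C. Fixed, permeabilized cells imaged; %pathology (punctate TorsinA) primary, cell count counterscreen.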

Where [5] appears, read: measured here: cell count channel max response.
The mark [6] stands for this setting: measured here: lipid (BODIPY) channel AC50.
The mark [7] stands for this setting: measured here: lipid channel max response.
[8] abbreviates: measured here: cell number channel AC50.

Some of the results follow. Shown are side measurements of this screen, not its main read-out; they come without a call. The list favours compounds with an active or inconclusive main result. Words in brackets tell the shape of the fitted curve; partial curves, single points and poor fits give uncertain potencies.
Tags tell the direction and shape of the fitted curve.

Consider `O=C(O)c1cc(O)c2c(c1)[C@H]([C@H]1c3cc(C(=O)O)cc(O)c3C(=O)c3c(O[C@@H]4OC(CO)C(O)C(O)C4O)cccc31)c1cccc(O[C@@H]3OC(CO)C(O)C(O)C3O)c1C2=O` (some centres undefined), for which the max response in test [1] (setting [5]) was 16.6%; in test [1] (setting [7]), 34.3%. For the same compound, the AC50 in test [1] (setting [6]) is 39.8 µM [rising, single point]; in test [2] it was 5.62 µM [falling, full curve, poor fit].
Turning to `Cc1cccc(CNc2ccnc(-c3cccc(C#N)c3)n2)c1`, the AC50 was 15.8 µM [rising, single point] in test [3] and 5.62 µM [rising, partial curve, poor fit] in test [1] (setting [6]). Further, the max response was found to be 0.695% in test [1] (setting [5]) and 7.66% in test [1] (setting [7]).
In the case of `COc1cccc(-c2nccc(NCc3cccs3)n2)c1`, the AC50 in test [3] was 7.94 µM [rising, partial curve]; in test [1] (setting [6]), 0.708 µM [rising, full curve]. Further, the max response stood at 1.6% in test [1] (setting [5]) and 5.38% in test [1] (setting [7]).
On to `CN1C(C(=O)Nc2ccccn2)=C(O)c2sccc2S1(=O)=O`, for which the max response in test [1] (setting [5]) amounted to 25.2%; in test [1] (setting [7]) it was 46%. The AC50 in test [1] (setting [6]) is 20 µM [rising, partial curve, poor fit]; in test [2] it was 0.00337 µM [falling, full curve, poor fit].
As to `COc1cccc(NC(=O)/C=C\c2ccc(Cl)cc2)c1`, the AC50 in test [3] was 15.8 µM [rising, single point]; in test [1] (setting [8]) it was 7.94 µM [rising, partial curve, poor fit]. The max response in test [1] (setting [5]) worked out at 48.6%; in test [1] (setting [7]), 52%.
In the case of `CN(C)Cc1ccccc1-c1nc(NC2CC2)c2ccccc2n1`, the half-maximal activity concentration (AC50) is 12.6 µM [rising, single point] in test [3] and 3.55 µM [rising, single point] in test [1] (setting [6]). Besides, the max response in test [1] (setting [5]) is 19.4%; in test [1] (setting [7]) it was 20.7%.
Take `COc1cccc(Cn2c(=O)c(-c3cccs3)nc3cnc(Nc4ccccc4)nc32)c1`: the AC50 was 3.98 µM [rising, single point] in test [3] and 0.794 µM [rising, full curve] in test [1] (setting [8]). Further, the max response in test [1] (setting [5]) is 44.6%; in test [1] (setting [7]) it was -57%.
For the compound `CN1CCN(C2=Cc3ccccc3Oc3ccc(Cl)cc32)CC1`, the half-maximal activity concentration (AC50) was 31.6 µM [rising, partial curve, poor fit] in test [3] and 28.2 µM [rising, partial curve, poor fit] in test [1] (setting [8]). The max response came out at 44.8% in test [1] (setting [5]) and 61.4% in test [1] (setting [7]).
As to `N#Cc1cccc(NC(=O)N2CCCC3(CCN(C(=O)c4csnn4)CC3)C2)c1`, the AC50 is 0.398 µM [rising, single point] in test [3] and 0.00562 µM [rising, full curve, poor fit] in test [1] (setting [6]). Further, the max response in test [1] (setting [5]) is 21.5%; in test [1] (setting [7]) it was 33.8%.
For `O=C(c1cccc(F)c1)N1CCC2(CCCN(c3ccccc3)C2)CC1`, the AC50 in test [3] was 10 µM [rising, single point]; in test [1] (setting [8]), 6.31 µM [rising, single point]. In addition, the results for the max response in test [1] (setting [5]) and in test [1] (setting [7]) were 15.5% and 17.4%, respectively.
For `CN1CCN(c2ncc3nc(CCc4ccccc4)c(=O)n(CCc4ccccc4)c3n2)CC1`, the AC50 in test [3] is 15.8 µM [rising, single point]; in test [1] (setting [6]) it was 0.355 µM [rising, full curve, poor fit]. Further, the max response is 15.1% in test [1] (setting [5]) and 15.9% in test [1] (setting [7]).
With `C(=C\c1ccccc1)/CN1CCN(C(c2ccccc2)c2ccccc2)CC1`, the max response in test [1] (setting [5]) was -44.2%; in test [1] (setting [7]), -43.6%. Besides, in test [4], the AC50 was 35.5 µM [falling, single point].
Regarding `O=C(Nc1ccccc1)N1CCCC2(CCN(C(=O)c3cccc(F)c3)CC2)C1`, the AC50 in test [3] was 1.26 µM [rising, partial curve]; in test [1] (setting [6]) it was 0.0631 µM [rising, full curve, poor fit]. For the same compound, the max response in test [1] (setting [5]) was found to be 19.6%; in test [1] (setting [7]), 30.3%.
Turning to `CCCCCCC[N+](CC)(CC)CCCCc1ccc(Cl)cc1`, the max response was -15.2% in test [1] (setting [5]) and -43.6% in test [1] (setting [7]). Moreover, the AC50 in test [1] (setting [6]) is 20 µM [falling, single point]; in test [2], 5.35 µM [falling, full curve, poor fit].
Consider `c1ccc(N2CCN(CCCOc3ccc4c(c3)OCO4)CC2)cc1`, for which the AC50 is 12.6 µM [rising, partial curve] in test [3] and 8.91 µM [rising, partial curve, poor fit] in test [1] (setting [6]). Also, the max response in test [1] (setting [5]) is 114%; in test [1] (setting [7]) it was 149%.
As to `CC(=O)Oc1cc(C(F)(F)F)ccc1C(=O)O`, the AC50 is 5.01 µM [rising, partial curve] in test [3] and 0.316 µM [rising, full curve, poor fit] in test [1] (setting [6]). In addition, the max response is 0.451% in test [1] (setting [5]) and -1.4% in test [1] (setting [7]).
With `O=NN(CCCl)C(=O)NCCCl`, the values for the max response in test [1] (setting [5]) and in test [1] (setting [7]) were 33.3% and 31.9%, respectively. The concentration at half-maximal activity (AC50) in test [4] is 28.2 µM [rising, partial curve, poor fit].
Regarding `CNCCCCCCCCSc1nc(C(C)C)ccc1C(=O)c1cccs1`, the AC50 in test [3] is 15.8 µM [rising, single point]; in test [1] (setting [6]), 7.94 µM [rising, full curve]. In addition, the results for the max response in test [1] (setting [5]) and in test [1] (setting [7]) were 32.2% and 67.1%, respectively.
Take `c1cc2c3c(c1)c1c(n3CCNC2)CCCC1`: the concentration at half-maximal activity (AC50) in test [3] was 6.31 µM [rising, partial curve, poor fit]; in test [1] (setting [6]), 31.6 µM [rising, partial curve]. The max response amounted to 90.9% in test [1] (setting [5]) and 136% in test [1] (setting [7]).
